{
  "source": "PubChem BioAssay AID463173",
  "about": "(ICCB-Longwood Screening Facility, Harvard Medical School, 2010)",
  "note": "Out of some 52,000 compounds screened, about 1,700 (3.3%) were called active. Cut-off read from the data, not from the text of the source: active = survival mostly below about 52% (no sharp cut-off); inactive = mostly above about 56%. The list shows a part of the results.",
  "data": [
    {"test_system": "Wild type", "test": "growth inhibition of S. aureus wild type versus tarO mutant, primary screen, teichoic acid synthesis inhibitors, RN4220, OD600 (AID 463173)", "details": "S. aureus RN4220 wild type/DeltatarO growth, OD600, 18 h, stronger effect = lower value, screened at 18.75 µg/mL (by protocol)", "values": [
      {"smiles": "CCCCNC(=O)CSc1nc2n[nH]c(C)c2c(=N)n1-c1cccc(Cl)c1C", "survival": "inactive: 136%"},
      {"smiles": "Cc1cccc(-c2noc(-c3cccnc3NCc3ccc(Cl)cc3)n2)c1", "survival": "inactive: 84%"},
      {"smiles": "CC1(C)N=C(SCc2ccccc2Cl)c2ccccc2N1", "survival": "inactive: 119%"},
      {"smiles": "Cc1ccc(S(=O)(=O)c2nnn3c2nc(NC(C)C)c2cc(Cl)ccc23)cc1C", "survival": "inactive: 86%"},
      {"smiles": "COc1ccc2c(c1)sc1ncc(C(=O)NCc3ccccc3F)c(=O)n12", "survival": "inactive: 83%"},
      {"smiles": "O=C(OC(C(=O)NCc1ccc2c(c1)OCO2)c1ccccc1F)c1ccco1", "note": "(centres undefined)", "survival": "inactive: 101%"},
      {"smiles": "COc1ccc(S(=O)(=O)Nc2ccc3oc4c(c3c2)CCCC4)cc1", "survival": "inactive: 41%"},
      {"smiles": "O=S(=O)(c1ccccc1)N1CCCC(C(F)(F)F)C1", "note": "(centres undefined)", "survival": "inactive: 110%"},
      {"smiles": "Cc1ccccc1C(=O)N1CC(=O)Nc2ccc(Cl)cc2C1c1ccccc1", "note": "(centres undefined)", "survival": "inactive: 66%"},
      {"smiles": "O=C(CCSCc1cccc(Cl)c1)N1CCN(c2ccc(Cl)cc2)CC1", "survival": "inactive: 80%"},
      {"smiles": "COc1ccc(CCNC(=O)CCCCn2c(=O)c3ccccc3n(CC(=O)Nc3c(C)cccc3C)c2=O)cc1OC", "survival": "inactive: 142%"},
      {"smiles": "C#CCn1c(=NC(=O)c2ccc3c(c2)OCCO3)sc2cc(OC)c(OC)cc21", "survival": "inactive: 73%"},
      {"smiles": "CCOc1ccc(NS(=O)(=O)c2ccc(C(=O)N(C)C)s2)cc1", "survival": "inactive: 67%"},
      {"smiles": "O=C(c1cccc(Cl)c1)N1c2nc(-c3ccco3)nn2C2(CCCCC2)[C@@H]2CCCC[C@@H]21", "survival": "inactive: 79%"},
      {"smiles": "Cc1nn(-c2ccc(N3CCCCC3)nn2)c(C)c1CCC(=O)Nc1ccc(F)cc1F", "survival": "inactive: 135%"},
      {"smiles": "COc1cc(OC)cc(N2C(=O)N(Cc3ccc(C(C)(C)C)cc3)c3ccccc3S2(=O)=O)c1", "survival": "inactive: 64%"},
      {"smiles": "COc1ccc(S(=O)(=O)N2CCC(C(=O)Nc3ccccc3)CC2)cc1OC", "survival": "inactive: 70%"},
      {"smiles": "CCOC(=O)c1c(C)[nH]c(C)c1S(=O)(=O)NCC(=O)Nc1cccc(C#N)c1", "survival": "inactive: 121%"},
      {"smiles": "COC(=O)c1scc(-c2ccc(C)cc2)c1S(=O)(=O)N1CCN(c2ccccc2)CC1", "survival": "inactive: 64%"},
      {"smiles": "COc1cccc(NC(=O)CC(=O)Nc2ccc3nc4n(c(=O)c3c2)CCCCC4)c1", "survival": "inactive: 84%"},
      {"smiles": "Cc1nc2ccc(S(=O)(=O)CCC(=O)Nc3ccc(Cl)cc3)cc2s1", "survival": "inactive: 89%"},
      {"smiles": "COc1ccc(OC)c(CNC(=O)c2ccc3c(c2)c(C)c(C)n3Cc2ccc(Cl)cc2)c1", "survival": "inactive: 82%"},
      {"smiles": "Cc1ccc(C)c(CN2C(=O)C(O)(c3c(C)[nH]c4ccccc34)c3ccccc32)c1", "note": "(centres undefined)", "survival": "inactive: 69%"},
      {"smiles": "O=C(C1CCCN(S(=O)(=O)c2cccc3nsnc23)C1)N1CCN(c2ccccc2)CC1", "note": "(centres undefined)", "survival": "inactive: 86%"},
      {"smiles": "CCOc1ccc(NC(=O)c2c(NCc3cccc(OC)c3OC)sc3c2CCC3)cc1", "survival": "inactive: 71%"},
      {"smiles": "CCc1ccc(NC(=O)CN(c2ccc(Cl)cc2)S(=O)(=O)c2ccsc2C(=O)OC)cc1", "survival": "inactive: 159%"},
      {"smiles": "CC1(C)C/C(=N\\O)C(C(O)c2ccccc2)C(C)(C)N1", "note": "(centres undefined)", "survival": "inactive: 104%"},
      {"smiles": "Nc1c(C(=O)Nc2ccccc2Cl)c2ccccn2c1C(=O)c1ccccc1", "survival": "inactive: 101%"},
      {"smiles": "Cc1cc(N2CCC(C)CC2)nc2ccc(NC(=O)Cc3c(F)cccc3Cl)cc12", "survival": "inactive: 84%"},
      {"smiles": "Cc1ccc(Cn2cc(S(=O)(=O)c3cccc(Cl)c3)c(=O)c3cc(F)c(N4CCCCC4)cc32)cc1", "survival": "inactive: 77%"},
      {"smiles": "CCOC(=O)N1CCN(C(=O)CN(c2ccccc2F)S(=O)(=O)c2ccc(C)cc2)CC1", "survival": "inactive: 69%"},
      {"smiles": "COC(=O)c1c(NC(=O)Cc2coc3cc(C)ccc23)sc2c1CCC2", "survival": "inactive: 106%"},
      {"smiles": "Cc1cc(C)cc(NC(=O)CSc2nc(=O)n(CCN3CCOCC3)c3c2CCC3)c1", "survival": "inactive: 68%"},
      {"smiles": "O=C(O)C1C2CCCCC21", "note": "(centres undefined)", "survival": "inactive: 109%"},
      {"smiles": "CCOC(=O)c1noc2nc(C)n(CC(=O)NC(C)CC)c(=O)c12", "note": "(centres undefined)", "survival": "inactive: 134%"},
      {"smiles": "O=C(NCc1cccs1)c1ccc2c(c1)N(Cc1cccc(F)c1)C(=O)c1ccccc1S2", "survival": "inactive: 87%"},
      {"smiles": "CCOc1ccccc1CNC(=O)c1ccc2c(c1)N(Cc1ccc(C)cc1)CCS2", "survival": "inactive: 79%"},
      {"smiles": "CC(=O)c1cccc(NC(=O)CSc2nc(=O)n(Cc3ccco3)c3c2CCC3)c1", "survival": "inactive: 68%"},
      {"smiles": "Cc1oc(-c2cccc(Cl)c2)nc1CS(=O)(=O)CC(=O)NC(C)CCc1ccccc1", "note": "(centres undefined)", "survival": "inactive: 21%"},
      {"smiles": "CCCCN(CC)C(=O)c1nn(C)c2c1CSc1ccccc1-2", "survival": "inactive: 108%"},
      {"smiles": "Cc1cc(C)n(C(=O)CCCC(=O)O)n1", "survival": "inactive: 96%"},
      {"smiles": "CCOc1ccc(/C=C/c2nc(C#N)c(NCc3ccccc3)o2)cc1", "survival": "inactive: 84%"},
      {"smiles": "C#CCNC(=O)NC1CCCN(S(=O)(=O)c2ccc(C)cc2)C1", "note": "(centres undefined)", "survival": "inactive: 112%"},
      {"smiles": "O=C(CCC1N=C2c3ccccc3N=C(SCc3ccc(F)cc3)N2C1=O)NCCc1ccccc1", "note": "(centres undefined)", "survival": "inactive: 113%"},
      {"smiles": "O=C(CSc1ccc(-c2cccs2)nn1)Nc1ccccc1C(F)(F)F", "survival": "inactive: 78%"},
      {"smiles": "Cc1ccc(NC(=O)C2CCCN(C(=O)c3cnn(-c4ccc(F)cc4)c3-n3cccc3)C2)c(Cl)c1", "note": "(centres undefined)", "survival": "inactive: 72%"},
      {"smiles": "Cc1ccccc1CNC(=O)C(C)N(c1ccccc1)S(C)(=O)=O", "note": "(centres undefined)", "survival": "inactive: 81%"},
      {"smiles": "O=C(NCCc1ccccc1Cl)C1CCN(c2nc3ccccc3nc2C(F)(F)F)CC1", "survival": "active: 10%"},
      {"smiles": "CC1(C)O[C@H]2[C@@H](O1)[C@@H](C(=O)Nc1ccccc1C(F)(F)F)O[C@@H]1OC(C)(C)O[C@@H]12", "survival": "inactive: 107%"},
      {"smiles": "COc1ccc(-n2c(-c3ccco3)nc3c(cnn3-c3ccc(Cl)cc3)c2=O)cc1", "survival": "inactive: 90%"},
      {"smiles": "COc1ccc(Cl)cc1NC(=O)C(C)Sc1nc2c(c(=O)[nH]1)CCCC2", "note": "(centres undefined)", "survival": "inactive: 74%"},
      {"smiles": "COc1ccccc1NC(=O)c1c(NCc2ccc(C)o2)sc2c1CCCCC2", "survival": "inactive: 73%"},
      {"smiles": "CCOC(=O)N1CCc2c(sc3c2C(=O)NC(c2cc(OC)c(OC)c(OC)c2)N3)C1", "note": "(centres undefined)", "survival": "inactive: 65%"},
      {"smiles": "O=C(Cc1ccc(Cl)cc1)N1CCOCC1", "survival": "inactive: 89%"},
      {"smiles": "COc1ccc(-c2cc(C(F)(F)F)n3nc(-c4ccccc4)cc3n2)cc1OC", "survival": "inactive: 84%"},
      {"smiles": "CCc1ccc(NC(=O)Cn2c(=O)n(CCC(C)C)c(=O)c3cccnc32)cc1", "survival": "inactive: 86%"},
      {"smiles": "CCCc1nn2c(=O)cc(COC(=O)c3ccccc3NC(=O)COc3ccccc3)nc2s1", "survival": "inactive: 87%"},
      {"smiles": "N#C/C(=C\\c1cn(CC(=O)NCC2CCCO2)c2ccccc12)C(=O)NCC1CCCO1", "note": "(centres undefined)", "survival": "inactive: 92%"},
      {"smiles": "CCOC(=O)c1cc(S(=O)(=O)Nc2cc(F)ccc2C)[nH]n1", "survival": "inactive: 75%"},
      {"smiles": "CCc1ccccc1NS(=O)(=O)c1ccc2c(c1)CC(=O)N2", "survival": "inactive: 116%"},
      {"smiles": "CC(=O)Nc1nonc1-c1nnc(SCc2ccccc2F)n1C", "survival": "inactive: 84%"},
      {"smiles": "CC(=O)c1ccc(N2CCN(c3ncnc4c3c(-c3ccccc3)cn4-c3ccc(Cl)cc3)CC2)cc1", "survival": "inactive: 65%"},
      {"smiles": "Cc1ccc(/C=C/c2onc(C)c2S(=O)(=O)N2CCC(C(=O)Nc3ccccc3C(F)(F)F)CC2)cc1", "survival": "inactive: 83%"},
      {"smiles": "CCCCSc1nnc2n(-c3ccc(OC)cc3)c(=O)c3c4c(sc3n12)COC(C(C)C)C4", "note": "(centres undefined)", "survival": "inactive: 74%"},
      {"smiles": "CC(=O)c1ccc(NC(=O)c2cc(C)nc3c2c(C)nn3-c2ccc(C)cc2)cc1", "survival": "inactive: 99%"},
      {"smiles": "Cc1cccc2c1N(Cc1ccccc1OCCC(C)C)C(=O)C2=O", "survival": "active: 25%"},
      {"smiles": "COc1cccc(CNC(=O)Cn2nc(-c3ccc(Cl)cc3)ccc2=O)c1", "survival": "inactive: 131%"},
      {"smiles": "COc1ccc2c(c1)c(=O)c(S(=O)(=O)c1ccccc1)cn2CC(=O)Nc1ccc(C)c(Cl)c1", "survival": "inactive: 85%"},
      {"smiles": "CCn1c(SCCN2CCOCC2)nnc1C1CCCCC1", "survival": "inactive: 122%"},
      {"smiles": "COc1ccc(-n2c(=O)c3c(c4cc(OC)ccc4n3C)n(Cc3cccc(C)c3)c2=O)cc1", "survival": "inactive: 85%"},
      {"smiles": "O=C(CSc1nnc(-c2ccco2)n1CC1CCCO1)c1ccccc1", "note": "(centres undefined)", "survival": "inactive: 104%"},
      {"smiles": "CCOC(=O)c1c(C)[nH]c(C)c1S(=O)(=O)N1CCCC(C(=O)NCc2ccc(N(C)C)cc2)C1", "note": "(centres undefined)", "survival": "inactive: 71%"},
      {"smiles": "CCOC(=O)c1ccc(-c2ccc(C=C(C#N)C#N)o2)cc1", "survival": "inactive: 112%"},
      {"smiles": "CC(C)CC(=O)Nc1nnc(S(=O)(=O)N(C)Cc2ccc(Cl)cc2)s1", "survival": "inactive: 78%"},
      {"smiles": "COC(=O)/C(C#N)=C/c1ccc(-c2ccccc2)o1", "survival": "inactive: 117%"},
      {"smiles": "CCC(C(=O)Nc1cccc(-c2nc3cccnc3s2)c1C)c1ccccc1", "note": "(centres undefined)", "survival": "inactive: 117%"},
      {"smiles": "COc1ccc(-n2cc(C(=O)NCCc3cc(OC)ccc3OC)c3ccccc3c2=O)cc1", "survival": "inactive: 84%"},
      {"smiles": "CC1=C(C(=O)Nc2ccc(C)cc2C)C(c2cccs2)n2nc(SCc3cccc(C)c3)nc2N1", "note": "(centres undefined)", "survival": "inactive: 126%"},
      {"smiles": "CNC(=O)CSc1nc2cc3c(cc2cc1C)OCCO3", "survival": "inactive: 110%"},
      {"smiles": "CNC(=O)CSc1cn(CC(=O)N2CCCCCC2)c2ccccc12", "survival": "inactive: 107%"},
      {"smiles": "N#Cc1c(N)nc2c(c1-c1ccccc1)CCCC2", "survival": "inactive: 130%"},
      {"smiles": "CC(C)CCn1nnnc1CN1CCN(Cc2ccc3c(c2)OCO3)CC1", "survival": "inactive: 100%"},
      {"smiles": "COc1ccc(OC)c(NC(=O)CN2C(=O)CC(C)Sc3ccccc32)c1", "note": "(centres undefined)", "survival": "inactive: 81%"},
      {"smiles": "O=C(CCOc1ccccc1)N(Cc1cccnc1)c1nc2ccc(Cl)cc2s1", "survival": "inactive: 82%"},
      {"smiles": "CCOc1ccc(NC(=O)CSc2oc(-c3ccc(F)cc3)nc2S(=O)(=O)c2ccc(C)cc2)cc1", "survival": "inactive: 89%"},
      {"smiles": "CCOC(=O)c1ccc(NC(=O)CSc2nc3cc4ccccc4cc3[nH]2)cc1", "survival": "inactive: 84%"},
      {"smiles": "Cc1nc2nc(NC(=O)c3ccc(C(C)(C)C)cc3)[nH]n2c(=O)c1Cc1ccccc1", "survival": "inactive: 115%"},
      {"smiles": "Clc1ccccc1-c1nnc(COc2ccccc2)o1", "survival": "inactive: 75%"},
      {"smiles": "Cc1ccc(CN(Cc2ccco2)C(=O)c2oc3cc(Br)ccc3c2C)cc1", "survival": "inactive: 85%"}
    ]}
  ]
}
